System: Magnaporthe grisea; Anamorph: Pyricularia oryzae
Assay type: in vivo
Set-up: key: A: 80-100; B: More than 0-Less than 80; C: Not Tested; D: No activity noticed in this bioassay
Conditions: 100 ppm; 1 Day Protectant; Rice Blast

Compound | Disease Control PYRIOR 1 DP
CCOCC(=O)OCOc1c(OC)ccnc1C(=O)N[C@H]1CCC[C@H](Cc2ccc(F)cc2)[C@@H](OCC(C)C)[C@H](C)OC1=O [Compound F168] | D
C=CCO[C@@H]1[C@@H](Cc2ccc(F)cc2)CCC[C@H](NC(=O)c2nccc(OC)c2OCOC(=O)COCC)C(=O)O[C@H]1C [Compound F166] | D
